Measurements published in patent publication US20250320305A1.

Key:
[1] = biological target: human Fibroblast Activation Protein (FAP) expressed on cells (human), Q12884; experiment: flow cytometry, NIH/3T3-huFAP cells
[2] = biological target: human CD40 expressed on cells (human), P25942; experiment: flow cytometry, primary human B cells

EC50 [1]: 7.52 nM
EC50 [2]: 0.036 nM
B1: P1AE2424, CD40 (P1AE0817) x FAP (P1AE1689) (4+1) with C-terminal crossfab fusion (bispecific antibody, human IgG1, kappa)
light 1: QVQLVQSGAEVKKPGASVKVSCKASGYTLTDYNMDWVRQAPGQGLEWIGDIYPNTGGTIYNQKFKGRVTMTIDTSTSTVYMELSSLRSEDTAVYYCTRFRGIHYAMDYWGQGTTVTVSSASVAAPSVFIFPPSDEQLKSGTASVVCLLNNFYPREAKVQWKVDNALQSGNSQESVTEQDSKDSTYSLSSTLTLSKADYEKHKVYACEVTHQGLSSPVTKSFNRGEC
light 2: DIVMTQTPLSLSVTPGQPASISCRSSQSLVHSNGNTFLHWYLQKPGQSPQLLIYTVSNRFSGVPDRFSGSGSGTDFTLKISRVEAEDVGVYFCSQTTHVPWTFGGGTKVEIKRTVAAPSVFIFPPSDRKLKSGTASVVCLLNNFYPREAKVQWKVDNALQSGNSQESVTEQDSKDSTYSLSSTLTLSKADYEKHKVYACEVTHQGLSSPVTKSFNRGEC
heavy 1: QVQLVQSGAEVKKPGASVKVSCKASGYSFTGYYIHWVRQAPGQSLEWMGRVIPNAGGTSYNQKFKGRVTLTVDKSISTAYMELSRLRSDDTAVYYCAREGIYWWGQGTTVTVSSASTKGPSVFPLAPSSKSTSGGTAALGCLVEDYFPEPVTVSWNSGALTSGVHTFPAVLQSSGLYSLSSVVTVPSSSLGTQTYICNVNHKPSNTKVDEKVEPKSCDGGGGSGGGGSQVQLVQSGAEVKKPGASVKVSCKASGYSFTGYYIHWVRQAPGQSLEWMGRVIPNAGGTSYNQKFKGRVTLTVDKSISTAYMELSRLRSDDTAVYYCAREGIYWWGQGTTVTVSSASTKGPSVFPLAPSSKSTSGGTAALGCLVEDYFPEPVTVSWNSGALTSGVHTFPAVLQSSGLYSLSSVVTVPSSSLGTQTYICNVNHKPSNTKVDEKV[… human IgG1 Fc with changes …]GGGGSGGGGSGGGGSGGGGSEIVLTQSPATLSLSPGERATLSCRASESVDNYGLSFINWFQQKPGQAPRLLIYGTSNRGSGIPARFSGSGSGTDFTLTISSLEPEDFAVYFCQQSNEVPYTFGGGTKVEIKSSASTKGPSVFPLAPSSKSTSGGTAALGCLVKDYFPEPVTVSWNSGALTSGVHTFPAVLQSSGLYSLSSVVTVPSSSLGTQTYICNVNHKPSNTKVDKKVEPKSC
heavy 2: QVQLVQSGAEVKKPGASVKVSCKASGYSFTGYYIHWVRQAPGQSLEWMGRVIPNAGGTSYNQKFKGRVTLTVDKSISTAYMELSRLRSDDTAVYYCAREGIYWWGQGTTVTVSSASTKGPSVFPLAPSSKSTSGGTAALGCLVEDYFPEPVTVSWNSGALTSGVHTFPAVLQSSGLYSLSSVVTVPSSSLGTQTYICNVNHKPSNTKVDEKVEPKSCDGGGGSGGGGSQVQLVQSGAEVKKPGASVKVSCKASGYSFTGYYIHWVRQAPGQSLEWMGRVIPNAGGTSYNQKFKGRVTLTVDKSISTAYMELSRLRSDDTAVYYCAREGIYWWGQGTTVTVSSASTKGPSVFPLAPSSKSTSGGTAALGCLVEDYFPEPVTVSWNSGALTSGVHTFPAVLQSSGLYSLSSVVTVPSSSLGTQTYICNVNHKPSNTKVDEKVEPKSCDKTHTCPPCPAPEAAGGPSVFLFPPKPKDTLMISRTPEVTCVVVDVSHEDPEVKFNWYVDGVEVHNAKTKPREEQYNSTYRVVSVLTVLHQDWLNGKEYKCKVSNKALGAPIEKTISKAKGQPREPQVCTLPPSRDELTKNQVSLSCAVKGFYPSDIAVEWESNGQPENNYKTTPPVLDSDGSFFLVSKLTVDKSRWQQGNVFSCSVMHEALHNHYTQKSLSLSPG

EC50 [2]: 0.049 nM
B2: P1AE2895, CD40 (P1AE0817) x FAP (4B9) (4+1) C-terminal crossfab fusion (bispecific antibody, human IgG1, kappa)
light 1: EIVLTQSPGTLSLSPGERATLSCRASQSVTSSYLAWYQQKPGQAPRLLINVGSRRATGIPDRFSGSGSGTDFTLTISRLEPEDFAVYYCQQGIMLPPTFGQGTKVEIKSSASTKGPSVFPLAPSSKSTSGGTAALGCLVKDYFPEPVTVSWNSGALTSGVHTFPAVLQSSGLYSLSSVVTVPSSSLGTQTYICNVNHKPSNTKVDKKVEPKSC
light 2: B1 light 2 with R128E, K129Q
heavy 1: QVQLVQSGAEVKKPGASVKVSCKASGYSFTGYYIHWVRQAPGQSLEWMGRVIPNAGGTSYNQKFKGRVTLTVDKSISTAYMELSRLRSDDTAVYYCAREGIYWWGQGTTVTVSSASTKGPSVFPLAPSSKSTSGGTAALGCLVKDYFPEPVTVSWNSGALTSGVHTFPAVLQSSGLYSLSSVVTVPSSSLGTQTYICNVNHKPSNTKVDKKVEPKSCDGGGGSGGGGSQVQLVQSGAEVKKPGASVKVSCKASGYSFTGYYIHWVRQAPGQSLEWMGRVIPNAGGTSYNQKFKGRVTLTVDKSISTAYMELSRLRSDDTAVYYCAREGIYWWGQGTTVTVSSASTKGPSVFPLAPSSKSTSGGTAALGCLVKDYFPEPVTVSWNSGALTSGVHTFPAVLQSSGLYSLSSVVTVPSSSLGTQTYICNVNHKPSNTKVDKKV[… human IgG1 Fc with changes …]GGGGSGGGGSGGGGSGGGGSEVQLLESGGGLVQPGGSLRLSCAASGFTFSSYAMSWVRQAPGKGLEWVSAIIGSGASTYYADSVKGRFTISRDNSKNTLYLQMNSLRAEDTAVYYCAKGWFGGFNYWGQGTLVTVSSASVAAPSVFIFPPSDEQLKSGTASVVCLLNNFYPREAKVQWKVDNALQSGNSQESVTEQDSKDSTYSLSSTLTLSKADYEKHKVYACEVTHQGLSSPVTKSFNRGEC
heavy 2: B1 heavy 2 with E144K, E210K, E372K, E438K

Changes are numbered by the printed parent chain. One block for each binder: values may come before it.
